Source: paper PMC12136788
The other results are listed elsewhere or left out.

T1: UNK ZnF1-3 (human, UniProt Q9C0B0 31-174)
T1 sequence: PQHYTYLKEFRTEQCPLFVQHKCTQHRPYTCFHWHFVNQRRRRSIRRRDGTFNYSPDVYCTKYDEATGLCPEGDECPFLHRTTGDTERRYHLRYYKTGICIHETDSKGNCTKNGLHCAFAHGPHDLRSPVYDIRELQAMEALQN

B1: chr8:67243003:67243004:-_ENSMUSG00000031605_ENSMUST00000034017|mus_mus|FALSE|FALSE (ssRNA)
RNA: GGGAGUUCUACAGUCCGACGAUCAUCACUGGAGAUUAAGCUGCACACCUGCUCGAUGCCGAGGUUAAGAAACUCUUCACUAAGUACGACAUCUGCAAAAUGUUGUUCUGCAUACGUGUUGGCCUUAUUCAGGAGGUCUGUGCACAACAGAGGAUUGAGCAUCA
B2: chr18:67649703:67649704:-_ENSMUSG00000024533_ENSMUST00000115050|mus_hu|motif|central (ssRNA)
RNA: GGGAGUUCUACAGUCCGACGAUCGUUACUGUAUUUUGAUGUGGUAUGAAAUGCAGCCGCCAUGCCUUUCAUGAAACGGUGCGGUCGUGGUGCUGACUACAGACAUGUCCUAUGGCUUUCAGGAAAUUAUUGUGCAUGUGCAUUCAACAGAGGAUUGAGCAUCA
B3: 14041113_14041233_1033_ncRNA_ENSMUSG00000068036_ENSMUST00000124922|mouse|control|control (ssRNA)
RNA: GGGAGUUCUACAGUCCGACGAUCCAAAAGCUAACAGAAACAGGUAACUUCAUGUGAGUCAGAUCACAAAGAACUAGACAGGAUUUUUCUUGGUAAAGUAAAACGAAGUUUCUUGGAAUUGGAACAUCUCUAAAUUGCAACCAUCAACAGAGGAUUGAGCAUCA
B4: 63775417_63775537_632_3pUTR_ENSMUSG00000021273_ENSMUST00000054963|mouse|control|control (ssRNA)
RNA: GGGAGUUCUACAGUCCGACGAUCCCUUCCUGUUGGUCUUCCAGAUAAUCACGAAUGAUAUUUGUUUUCUGCAGGAACAGACCCAUUGAGUUGGCACACUCUAUGUCUUCACCAACUAUGGGGUCUUCAAACUCUGAGGCAGAGCAACAGAGGAUUGAGCAUCA
B5: 70225431_70225551_570_CDS_ENSG00000138346_ENST00000358410|human|control|control (ssRNA)
RNA: GGGAGUUCUACAGUCCGACGAUCCAAAUGUCUUAUUUCUUGAAUUGUUUGAAAAGCAAGUUCUUGUAGCUUUUCUGGGGCAAAGCUAUUAUUUAUGGCUUUUUGAAACACCUCAUGGAGAACCGUACCAAUUAGCAUUUGGCGCAACAGAGGAUUGAGCAUCA
B6: chr3:58389919:58389920:+_ENSMUSG00000075700_ENSMUST00000107924|mus_hu|motif|central (ssRNA)
RNA: GGGAGUUCUACAGUCCGACGAUCGCUAGGAGCUUGCAUGCCAAAGAAAGCAAAAGGAUCCUUGCCAACAAUUAUUAAGCCGGUUAAUACUAGUUUGAAGACUGACAGGAAAGAUGCUAUGUGUCUAUAUAUUGGUUGAGGGAGCAACAGAGGAUUGAGCAUCA
B7: chr11:46405157:46405158:+_ENSG00000110492_ENST00000395566|hu_hu|hu_hu_hu_mus_False|78_108 (ssRNA)
RNA: GGGAGUUCUACAGUCCGACGAUCCCCUUAGGGGUGGGGGCACUUGGUGUGGGCGUGAAGGCAGGGCCGUGAUUGACAGAGCUGACAGGAAGACAAAAGGCACUGGUGGGUUAUAUCUUGGGCCUGUGGGAGAGGAGGGCUCCGCAACAGAGGAUUGAGCAUCA
B8: chr5:23024286:23024287:-_ENSMUSG00000062604_ENSMUST00000088392|mus_hu|motif|central (ssRNA)
RNA: GGGAGUUCUACAGUCCGACGAUCACACGCCGUGCUCCAGAUGUCCGCAGGGGUGCUGUACCCCGCUCCUAUUAAAACCUCGGUGGAGCGGUACUGACGCGUCUGGAUGUCUUCCGUGAAGUGUUUAUGCACCCAACAAGCAUUCAACAGAGGAUUGAGCAUCA
B9: chr3:9792807:9792808:+_ENSG00000114026_ENST00000339511|hu_mus|FALSE|FALSE (ssRNA)
RNA: GGGAGUUCUACAGUCCGACGAUCGGCCACUCUUUGGAAGUGGGAGUCUACAGAAGCCCAGUGGCUAUACAGCUGUGCCAGGCUGACAUCUAGCUGAAAGUACUUGUGUAGGGUUUCCAGCUCCUCUAGGGUGGGCCUGCUGACCAACAGAGGAUUGAGCAUCA
B10: chr3:88895943:88895944:-_ENSMUSG00000041263_ENSMUST00000052539|mus_hu|FALSE|FALSE (ssRNA)
RNA: GGGAGUUCUACAGUCCGACGAUCAGAAGAAGCUCCGGAGCAGGAAUCAGGAGAGCAGCAGAAGCUGUCCGGUGAGCAGGUGCCAGGGCCUGCUGAAGCCAGUGGGGAGCCCUGCUCCAGGGGGAUGAUACUGGGCUGAGGGUGCAACAGAGGAUUGAGCAUCA
B11: chr8:104447970:104447971:+_ENSG00000164934_ENST00000297579|hu_hu|hu_hu_hu_mus_False|18_18 (ssRNA)
RNA: GGGAGUUCUACAGUCCGACGAUCAUACACUUCCCUGCUUCGGCUCUUGUCCACAGGAAAGAUUCUAAUAGACUUAUCAAAGCUGGCAGACACAAAUUCCUUCCCAGUGGGAGAGUAAUCCACAUCAAGUACUGCAGACACGUGCAACAGAGGAUUGAGCAUCA
B12: chr9:121621712:121621713:+_ENSMUSG00000032526_ENSMUST00000035113|mus_hu|motif|central (ssRNA)
RNA: GGGAGUUCUACAGUCCGACGAUCUUUUGAAGUGCUGGUUGGACUGGCAUCUGCAAUGGUAGCCAAAUAAAUGAGAUUUCGGUGUAACACAUGCUGGUACUGCACGCACUCGUUCCCGCGGCCCUUGUUCUGAUACUCCACAAUCAACAGAGGAUUGAGCAUCA
B13: chr2:37230337:37230338:-_ENSMUSG00000075376_ENSMUST00000100143|mus_hu|FALSE|FALSE (ssRNA)
RNA: GGGAGUUCUACAGUCCGACGAUCAGAAAUAAAUAAGUUAACUAAGUCUACUUUCACUAGAUGUAUCAUUGUAGGAUCCUGCUAGUUUAAUAACUGAGUUGUUAAUUUUCUAUAGAAGCCAUUUAAAAUAGGAAAUGGCUCAGUCAACAGAGGAUUGAGCAUCA
B14: chrX:20248820:20248821:+_ENSMUSG00000001924_ENSMUST00000001989|mus_mus|mus_mus_mus_hu_True|8_68 (ssRNA)
RNA: GGGAGUUCUACAGUCCGACGAUCGGCGAAGUCCGUCACCACAAAGUCAGGUUCUGCCAGUGAGGCCGGCAAGGAUUUAAAGCUAAUCUUCUUAGGUACUUUGACCUGACUGACGAUGCCUCCACGGAUGUAGUCAGAGAAGUUCAACAGAGGAUUGAGCAUCA

Biological target: T1, UNK ZnF1-3
Assay: nsRBNS (natural sequence RNA bind-n-seq); RBNS binding buffer (assumed for nsRBNS): 25 mM Tris pH 7.5, 150 mM KCl, 3 mM MgCl2, 0.01% Triton X-100, 500 ug/ml BSA, 20 U/ml SUPERase-In, 4 C; UNK is unkempt and MSI1 is Musashi-1; names of the RNAs are library labels; protein concentration not given here; high values mean tight binding

Row | Binder | binding signal [enrichment R]
1 | B1 | 0.718
2 | B2 | 0.827
3 | B3 | 1.53
4 | B4 | 0.405
5 | B5 | 0.942
6 | B6 | 1.39
7 | B7 | 2.19
8 | B8 | 0.856
9 | B9 | 1.08
10 | B10 | 1.61
11 | B11 | 0.972
12 | B12 | 1.24
13 | B13 | 0.87
14 | B14 | 1
